Measurements reported in the supplement of paper PMC7436455.
The list shows a part of the results. Cut-off read from the data, not from the text of the source: only hits are listed; in these data all have Qbind below 0.67. Most values come without repeats; read them as rough.

What was measured:
Experiment in all cases: Qbind: 19F CPMG 200 ms/0 ms integral ratio with target relative to without target; higher = weaker binding (less relaxation enhancement by target)
[1] = system: Adenine-sensing riboswitch
[2] = system: EphA2 (34 kDA)
[3] = system: Guanidine-II-sensing riboswitch
[4] = system: HDV ribozyme (70 nt)
[5] = system: MptpA (18 kDa); conditions: 19F shift (ppm): -123.0535
[6] = system: PtkA (30 kDA)
[7] = system: Ribosomal protein S1 (61 kDa); conditions: 19F shift (ppm): -123.0852
[8] = system: T7 RNAP (100kDA)
[9] = system: TPP-sensing riboswitch tenA
[10] = system: TPP-sensing riboswitch thiM (80)
[11] = system: Tel26 G-quadruplex (26 nt)
[12] = system: Translation initiation region (60 nt)
[13] = system: ZMP-sensing riboswitch
[14] = system: c-di-GMP-sensing riboswitch (98 nt)
[15] = system: cGAMP-sensing riboswitch
[16] = system: cKit G-quadruplex (24 nt)
[17] = system: cMyc G-quadruplex (22 nt)
[18] = system: tRNA (77nt)
[19] = system: wtTel26 G-quadruplex (26 nt)
[20] = system: GAAG hairpin (14 nt)
[21] = system: CUUG hairpin (14 nt); conditions: 19F shift (ppm): -134.119
[22] = system: Terminator stem (39 nt)

Measured: Qbind: 19F CPMG 200 ms/0 ms integral ratio

COc1ccc(C(=O)Nc2ccccc2F)cc1
active: [1]; 19F shift (ppm): -123.1254 = -0.0536 | [2]; 19F shift (ppm): -123.1156 = -0.19 | [3]; 19F shift (ppm): -123.1156 = 0.297 | [4]; 19F shift (ppm): -123.1254 = 0.364 | [5] 0.252 | [6]; 19F shift (ppm): -122.9419 = 0.177 | [7] 0.175 | [8]; 19F shift (ppm): -121.8878 = 0.324 | [9]; 19F shift (ppm): -123.1156 = -0.149 | [10]; 19F shift (ppm): -123.1156 = -0.0253 | [11]; 19F shift (ppm): -123.159 = -0.0293 | [12]; 19F shift (ppm): -123.1254 = 0.0509 | [13]; 19F shift (ppm): -123.0852 = 0.0867 | [14]; 19F shift (ppm): -123.0852 = 0.112 | [15]; 19F shift (ppm): -123.0852 = -0.0178 | [16]; 19F shift (ppm): -123.159 = -0.105 | [17]; 19F shift (ppm): -123.159 = -0.254 | [18]; 19F shift (ppm): -123.1254 = 0.629 | [19]; 19F shift (ppm): -123.159 = 0.0169

O=C(COc1ccccc1)Nc1cccc(F)c1
active: [1]; 19F shift (ppm): -112.222 = 0.611 | [9]; 19F shift (ppm): -112.1773 = 0.652 | [11]; 19F shift (ppm): -112.1721 = 0.464 | [13]; 19F shift (ppm): -112.194 = 0.524 | [16]; 19F shift (ppm): -112.1721 = 0.107 | [17]; 19F shift (ppm): -112.1721 = 0.163 | [19]; 19F shift (ppm): -112.1721 = 0.504

CC(C)(C)CC(=O)Nc1ccc(F)cc1F
active: [6]; 19F shift (ppm): -116.6943 = -0.109

CCNC(=O)c1ccc(N(C)C)c(F)c1
active: [1]; 19F shift (ppm): -121.592 = 0.615 | [9]; 19F shift (ppm): -121.5553 = 0.653 | [13]; 19F shift (ppm): -121.528 = 0.662

O=C(Nc1ccc(F)cc1)Nc1ccc(F)cc1
active: [1]; 19F shift (ppm): -64.6505 = 0.0443 | [20]; 19F shift (ppm): -64.6007 = 0.592 | [3]; 19F shift (ppm): -64.571 = 0.614 | [4]; 19F shift (ppm): -64.6505 = 0.479 | [6]; 19F shift (ppm): -64.2219 = 0.0869 | [8]; 19F shift (ppm): -64.3672 = -0.108 | [9]; 19F shift (ppm): -64.571 = 0.127 | [10]; 19F shift (ppm): -64.571 = 0.635 | [12]; 19F shift (ppm): -64.6505 = 0.0953 | [13]; 19F shift (ppm): -64.571 = 0.36 | [14]; 19F shift (ppm): -64.571 = 0.364 | [15]; 19F shift (ppm): -64.571 = 0.49 | [16]; 19F shift (ppm): -64.4382 = 0.465 | [17]; 19F shift (ppm): -64.4382 = 0.338 | [18]; 19F shift (ppm): -64.6505 = 0.587

CC1(C)CN(c2ncccc2F)CC1O (stereo not given)
active: [21] 0.651 | [8]; 19F shift (ppm): -134.368 = 0.177 | [15]; 19F shift (ppm): -134.0324 = 0.366

NC(=S)Nc1ccccc1OC(F)(F)F
active: [20]; 19F shift (ppm): -57.9957 = 0.648

Cc1nnc(CN2CCC=C(F)C2)s1
active: [3]; 19F shift (ppm): -112.396 = 0.657 | [8]; 19F shift (ppm): -113.7985 = 0.275 | [10]; 19F shift (ppm): -112.396 = 0.592

Cc1ncc(CNc2cncc(F)c2)s1
active: [2]; 19F shift (ppm): -126.5887 = 0.225 | [20]; 19F shift (ppm): -126.6046 = 0.534 | [9]; 19F shift (ppm): -126.5887 = -0.237 | [10]; 19F shift (ppm): -126.5887 = 0.0726

O=C(NCc1ccccc1)c1cccc(F)c1
active: [6]; 19F shift (ppm): -112.4823 = 0.153 | [8]; 19F shift (ppm): -112.5551 = 0.0778 | [22]; 19F shift (ppm): -112.5551 = 0.587

CNC(=O)NCc1c(F)cccc1Cl
active: [6]; 19F shift (ppm): -114.7383 = 0.106 | [9]; 19F shift (ppm): -114.6748 = 0.626 | [10]; 19F shift (ppm): -114.6748 = 0.246

O=C(Cc1ccc(F)cc1)NC1CCCCC1
active: [6]; 19F shift (ppm): -116.2645 = -0.0214 | [8]; 19F shift (ppm): -116.29 = 0.246

O=C(NCCc1ccc(F)cc1)c1ccco1
active: [6]; 19F shift (ppm): -117.3831 = 0.24 | [8]; 19F shift (ppm): -117.436 = 0.0476

COC(=O)N1CCN(c2ccc(F)cc2)CC1
active: [6]; 19F shift (ppm): -121.82 = 0.199 | [16]; 19F shift (ppm): -121.8432 = 0.602

NC(=O)N1CCN(c2ccc(F)cc2)CC1
active: [6]; 19F shift (ppm): -121.8417 = 0.252 | [13]; 19F shift (ppm): -121.7649 = 0.512

O=C(C1CC1)N1CCN(c2ccc(F)cc2)CC1
active: [6]; 19F shift (ppm): -121.8704 = 0.223 | [8]; 19F shift (ppm): -123.0852 = -0.293

NC(=O)c1cnc(C(F)(F)F)nc1
active: [8]; 19F shift (ppm): -70.2283 = 0.0261 | [9]; 19F shift (ppm): -70.3042 = 0.548

CC(=O)c1ccc(OC(F)F)cc1
active: [8]; 19F shift (ppm): -82.8327 = 0.318 | [9]; 19F shift (ppm): -82.8327 = 0.105 | [13]; 19F shift (ppm): -82.8327 = 0.216

Fc1ccc(Cn2cnc3ccccc32)cc1
active: [8]; 19F shift (ppm): -108.367 = 0.26 | [11]; 19F shift (ppm): -108.4314 = 0.556

CNC(=O)c1c(-c2ccc(F)cc2)noc1C
active: [8]; 19F shift (ppm): -110.3505 = 0.141

CNS(=O)(=O)c1cccc(C)c1F
active: [8]; 19F shift (ppm): -110.5185 = 0.219

Cc1cc(F)ccc1CS(N)(=O)=O
active: [8]; 19F shift (ppm): -113.7396 = 0.302 | [10]; 19F shift (ppm): -113.763 = 0.555 | [16]; 19F shift (ppm): -113.7698 = 0.644

CC1(S(=O)(=O)N2CCC=C(F)C2)CC1
active: [8]; 19F shift (ppm): -114.624 = 0.274

CC(=O)Nc1cccc(F)c1C(=O)O
active: [8]; 19F shift (ppm): -115.9533 = 0.323

CCn1cc(C(=O)NCc2ccc(F)cc2)cn1
active: [8]; 19F shift (ppm): -116.004 = 0.292

Cl.N[C@@H]1CCCN(C(=O)CCC(F)(F)F)C1
active: [9]; 19F shift (ppm): -112.2375 = 0.576 | [11]; 19F shift (ppm): -112.292 = 0.195 | [16]; 19F shift (ppm): -112.292 = 0.387 | [17]; 19F shift (ppm): -112.292 = 0.0153 | [19]; 19F shift (ppm): -112.292 = 0.512

O=C(NCCc1ccncc1)c1ccccc1F
active: [9]; 19F shift (ppm): -115.614 = 0.37 | [16]; 19F shift (ppm): -115.635 = 0.613

CN1CCN(C(=O)Nc2ccc(F)cc2)CC1
active: [9]; 19F shift (ppm): -118.212 = 0.501 | [13]; 19F shift (ppm): -118.191 = 0.352

C[C@@H](CO)Nc1ncc(Cl)cc1F
active: [9]; 19F shift (ppm): -136.286 = 0.608

CC(O)COc1cccc(F)c1 (stereo not given)
active: [10]; 19F shift (ppm): -111.9628 = 0.64

Fc1ccc(CNC[C@H]2CCCO2)cc1
active: [10]; 19F shift (ppm): -112.1831 = 0.624

CN1CCN(c2ncccc2F)CC1=O
active: [10]; 19F shift (ppm): -128.107 = 0.613

O=C(c1c(F)cccc1F)N1CCCCCC1
active: [11]; 19F shift (ppm): -112.6352 = 0.267 | [16]; 19F shift (ppm): -112.6352 = 0.149 | [17]; 19F shift (ppm): -112.672 = 0.319

Fc1cccc(CN2CCOCC2)c1
active: [22]; 19F shift (ppm): -112.8194 = 0.133 | [14]; 19F shift (ppm): -112.8194 = 0.526 | [16]; 19F shift (ppm): -112.622 = 0.242 | [17]; 19F shift (ppm): -112.622 = 0.449 | [19]; 19F shift (ppm): -112.622 = 0.449

CNc1ncc(C(F)(F)F)cc1Cl
active: [13]; 19F shift (ppm): -60.8707 = 0.551

CNC1CCN(c2ccccc2F)C1=O.Cl (stereo not given)
active: [16]; 19F shift (ppm): -121.1759 = 0.662
